Results published in the supplement of paper PMC12067230.
The data scatter; read single values as rough.

Assay: amyloid nucleation score relative to library mode (yeast Sup35 reporter selection) (log enrichment difference); higher = more amyloid nucleation; sequences are the first 22 residues of the Bri2 peptide extended by up to 12 random residues
Settings: random library (experiment): 1;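 active = nucleation score significantly above 0 at FDR 0.05; inactive = not significantly above 0 or absent from output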
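Further: [psi-pin-] Saccharomyces cerevisiae expressing SupN fusions, induced by 100 µM Cu2SO4, selected 7 d at 30 °C without adenine and uracil, scored by deep sequencing of output versus input.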

| Sequence | amyloid nucleation score |
| --- | --- |
| EASNCFAIRHFENKFAVETLICVCMVIFYRDMYY | inactive |
| EASNCFAIRHFENKFAVETLICVCQGV | 2.4 |
| EASNCFAIRHFENKFAVETLICVCQWPIFMFWVY | inactive |
| EASNCFAIRHFENKFAVETLICVCRAALMLEVGP | inactive |
| EASNCFAIRHFENKFAVETLICVCRESSLRTGHE | 4.07 |
| EASNCFAIRHFENKFAVETLICVCRKSIGFSLWR | inactive |
| EASNCFAIRHFENKFAVETLICVCRYTFMSLLLA | inactive |
| EASNCFAIRHFENKFAVETLICVCSPRLSRCSLR | inactive |
| EASNCFAIRHFENKFAVETLICVCSSRWGVEGDA | inactive |
| EASNCFAIRHFENKFAVETLICVCSTKVEAGSEG | inactive |
| EASNCFAIRHFENKFAVETLICVCTGRGVPHCNG | 4.18 |
| EASNCFAIRHFENKFAVETLICVCTPNTGYPSCG | 6.8 |
| EASNCFAIRHFENKFAVETLICVCTWVRYTFALS | 2.38 |
| EASNCFAIRHFENKFAVETLICVCVENPFGTGSV | 7.61 |
| EASNCFAIRHFENKFAVETLICVCVPMVNVASKK | 8.18 |
| EASNCFAIRHFENKFAVETLICVCVSVADRLLSM | inactive |
| EASNCFAIRHFENKFAVETLICVCVTSESMAPES | 7.8 |
| EASNCFAIRHFENKFAVETLICVCVVSVSDQLLA | inactive |
| EASNCFAIRHFENKFAVETLICVCWFR | 5.56 |
| EASNCFAIRHFENKFAVETLICVDALWS | inactive |

| Sequence | amyloid nucleation score |
| --- | --- |
| EASNCFAIRHFENKFAVETLICVDCWDLRRGDQT | inactive |
| EASNCFAIRHFENKFAVETLICVDENNRWFRLVT | 4.65 |
| EASNCFAIRHFENKFAVETLICVDFTMQVCCTDW | inactive |
| EASNCFAIRHFENKFAVETLICVDFVCVRRNEG | 5.12 |
| EASNCFAIRHFENKFAVETLICVDGKMFSFIVG | inactive |
| EASNCFAIRHFENKFAVETLICVDILEFV | inactive |
| EASNCFAIRHFENKFAVETLICVDIRSRSMSQ | 0.159 |
| EASNCFAIRHFENKFAVETLICVDKYQLSVNSGE | 0.818 |
| EASNCFAIRHFENKFAVETLICVDLCKVDVVWCA | 3.71 |
| EASNCFAIRHFENKFAVETLICVDLDMLCGCFRS | 8.64 |
| EASNCFAIRHFENKFAVETLICVDLESHSRLLHQ | 2.84 |
| EASNCFAIRHFENKFAVETLICVDLKCPRTVSVR | inactive |
| EASNCFAIRHFENKFAVETLICVDLLEGFTKLCL | 5.7 |
| EASNCFAIRHFENKFAVETLICVDLLFV | inactive |
| EASNCFAIRHFENKFAVETLICVDLRSFTLDVSA | inactive |
| EASNCFAIRHFENKFAVETLICVDMRAPKGPSPY | 4.41 |
| EASNCFAIRHFENKFAVETLICVDRLGVFARVPY | 2.46 |
| EASNCFAIRHFENKFAVETLICVDRSFQYQSVLT | inactive |
| EASNCFAIRHFENKFAVETLICVDRSSRASGNLR | 2.51 |

Same assay, conditions: random library (experiment): 2

| Sequence | amyloid nucleation score |
| --- | --- |
| EASNCFAIRHFENKFAVETLICVCMVSIRWGFLL | inactive |
| EASNCFAIRHFENKFAVETLICVCRFVVVTMHLL | inactive |
| EASNCFAIRHFENKFAVETLICVCRNLFLELSTA | inactive |
| EASNCFAIRHFENKFAVETLICVCRSTW | -0.732 |
| EASNCFAIRHFENKFAVETLICVCRTL | inactive |
| EASNCFAIRHFENKFAVETLICVCSGLGSNEVRE | 8.46 |
| EASNCFAIRHFENKFAVETLICVCSIALSSVLL | inactive |
| EASNCFAIRHFENKFAVETLICVCSLYM | inactive |
| EASNCFAIRHFENKFAVETLICVCSVCFNSLKDN | 8.1 |
| EASNCFAIRHFENKFAVETLICVCSVGAGREPCG | 3.9 |
| EASNCFAIRHFENKFAVETLICVCSWFNYVSSLG | 2.65 |
| EASNCFAIRHFENKFAVETLICVCTIASPDSRWS | 1.09 |
| EASNCFAIRHFENKFAVETLICVCTSSVYVALWL | inactive |
| EASNCFAIRHFENKFAVETLICVCTTSFVEYRFI | inactive |
| EASNCFAIRHFENKFAVETLICVCVVCRAQHSAC | 2.88 |
| EASNCFAIRHFENKFAVETLICVCVYRQIFSSRT | 5 |
| EASNCFAIRHFENKFAVETLICVCWLSLWYAGVV | inactive |
| EASNCFAIRHFENKFAVETLICVCYHKVMIGSVA | inactive |
| EASNCFAIRHFENKFAVETLICVDDMSWLLLRRS | inactive |
| EASNCFAIRHFENKFAVETLICVDFMKSRYIIGC | inactive |
| EASNCFAIRHFENKFAVETLICVDGECVLGKRIR | inactive |
| EASNCFAIRHFENKFAVETLICVDGEGCYYSVNG | inactive |
| EASNCFAIRHFENKFAVETLICVDKNMDSEILEP | inactive |
| EASNCFAIRHFENKFAVETLICVDLDDRS | -0.3 |
| EASNCFAIRHFENKFAVETLICVDPVRHSCCARH | -0.351 |
| EASNCFAIRHFENKFAVETLICVDRIFSLVCFVC | 0.261 |
| EASNCFAIRHFENKFAVETLICVDRIYFNFFPLP | 6.59 |
| EASNCFAIRHFENKFAVETLICVDRNMICGPLCV | inactive |
| EASNCFAIRHFENKFAVETLICVDRTL | inactive |

Same assay, conditions: random library (experiment): 3

| Sequence | amyloid nucleation score |
| --- | --- |
| EASNCFAIRHFENKFAVETLICVCMRTDSSRGRC | 6.79 |
| EASNCFAIRHFENKFAVETLICVCPERVVLHPIG | 5.09 |
| EASNCFAIRHFENKFAVETLICVCPFLGHLCILE | 1.52 |
| EASNCFAIRHFENKFAVETLICVCQLSFVMVACA | inactive |
| EASNCFAIRHFENKFAVETLICVCRSTVYAERPV | 2.17 |
| EASNCFAIRHFENKFAVETLICVCRYCITASWVV | inactive |
| EASNCFAIRHFENKFAVETLICVCSVRGIVMIWS | inactive |
| EASNCFAIRHFENKFAVETLICVCTFSIMSSVMW | 1.18 |
| EASNCFAIRHFENKFAVETLICVCTVDQWFTTRD | 5.04 |
| EASNCFAIRHFENKFAVETLICVCVGVGASNWVV | 5.24 |
| EASNCFAIRHFENKFAVETLICVCVRKIG | inactive |
| EASNCFAIRHFENKFAVETLICVCVSDTDEPCCS | 5.6 |
| EASNCFAIRHFENKFAVETLICVCYRERRSLRVG | inactive |
| EASNCFAIRHFENKFAVETLICVDCIAYAQAMGR | 2.55 |
| EASNCFAIRHFENKFAVETLICVDDRR | inactive |
| EASNCFAIRHFENKFAVETLICVDGYVVLAVSSV | 3.99 |
| EASNCFAIRHFENKFAVETLICVDMFNNCRFMVW | 7.23 |
| EASNCFAIRHFENKFAVETLICVDRCMNPNLTTA | inactive |
